From the supplement of paper PMC10369915 come the findings set out here.

B1: BTNL2_Y91_W94R (peptide)
chain: MQMEEYRGRVE
B2: BTK_Y511_M509V (peptide)
chain: CEAVEYLESKQ
B3: BTK_Y425_K430E (peptide)
chain: KWRGQYDVAIE
B4: C1QTNF1_Y145 (peptide)
chain: RCKSHYAAFSV
B5: CABP5_Y62 (peptide)
chain: MRTMGYMPTEM
B6: CACNB4_Y103 (peptide)
chain: KTNVSYCGALD
B7: CACNA1A_Y794_M797T (peptide)
chain: SREALYNETDP
B8: BTK_Y40_Y40N_YF (peptide)
chain: HKLSFNEFDFE
B9: CACNA1C_Y1757_V1755I (peptide)
chain: GNHISYYQSDG
B10: BST2_Y8_YF (peptide)
chain: STSFDYCRVPM
B11: BTK_Y361_S366F (peptide)
chain: PELINYHQHNF
B12: CACNA1A_Y1013 (peptide)
chain: GAPATYEGDAR
B13: CACNA1A_Y1013_E1014K (peptide)
chain: GAPATYKGDAR
B14: BTD_Y536_T532M_YF (peptide)
chain: VMAALYGRLFE
B15: C3orf33_Y164 (peptide)
chain: VSKGGYFSVNL
B16: BTK_Y361_H362Q (peptide)
chain: PELINYQQHNS
B17: CACNA1H_Y519_H516Y (peptide)
chain: VHYLVYHHHHH
B18: BTK_Y461 (peptide)
chain: KLVQLYGVCTK
B19: C3orf33_Y164_S160N (peptide)
chain: VNKGGYFSVNL

Some of the results follow. Cut-off read from the data, not from the text of the source: active = 3.2 or more and inactive = the rest. Most of these values are background signal.
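Note: displayed peptides selected on beads carrying the immobilized SH2 domain, with library peptides lacking any tyrosine serving as negative controls.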

One experiment addresses SHP2 C-SH2 domain E139D. The experiment can be described thus: enrichment score (SH2-bound / input frequency) (ratio); bacterial display of known human phosphotyrosine sites (pTyr-Var adds point mutants) read by sequencing; higher = stronger binding; tyrosines were phosphorylated by kinases first. To be noted: peptide library: pTyr-Var.
For the molecule B1, the enrichment score is inactive: 0.525.

Turning to B2, the enrichment score was inactive: 0.895.

As for B3, the enrichment score is inactive: 0.799.

With B4, the enrichment score is inactive: 3.04.

For the molecule B5, the enrichment score is inactive: 0.949.

Take B6: the enrichment score was inactive: 1.04.

On to B7, for which the enrichment score was inactive: 0.589.

Consider B8, for which the enrichment score was inactive: 0.988.

With B9, the enrichment score was inactive: 0.757.

Regarding B10, the enrichment score is inactive: 0.816.

B11: the enrichment score is inactive: 0.94.

Regarding B12, the enrichment score is inactive: 0.404.

For B13, the enrichment score is inactive: 0.461.

Take B14: the enrichment score was active: 3.42.

In the case of B15, the enrichment score was inactive: 1.19.

As for B16, the enrichment score is inactive: 0.804.

Regarding B17, the enrichment score is inactive: 2.93.

Regarding B18, the enrichment score was inactive: 1.3.

For the molecule B19, the enrichment score is inactive: 1.2.

In a further experiment the target is SHP2 C-SH2 domain wild-type. The experiment is described as above. To be noted: peptide library: pTyr-Var.
For B1, the enrichment score was inactive: 0.581.

As to B2, the enrichment score is inactive: 1.05.

Consider B3, for which the enrichment score is inactive: 1.04.

With B4, the enrichment score is inactive: 3.07.

As to B5, the enrichment score was inactive: 0.684.

As to B6, the enrichment score is inactive: 0.842.

Regarding B7, the enrichment score was inactive: 0.552.

As to B8, the enrichment score is inactive: 0.556.

Consider B9, for which the enrichment score is inactive: 0.411.

Take B10: the enrichment score was inactive: 0.721.

On to B11, for which the enrichment score is inactive: 0.844.

Consider B12, for which the enrichment score was inactive: 0.456.

Turning to B13, the enrichment score was inactive: 0.496.

As for B14, the enrichment score is active: 3.51.

For B15, the enrichment score was inactive: 1.36.

As to B16, the enrichment score is inactive: 0.71.

As to B17, the enrichment score was inactive: 3.13.

B18: the enrichment score is inactive: 1.49.

B19: the enrichment score is inactive: 1.13.

The target of the next experiment is SHP2 N-SH2 domain L43F. Described as above. To be noted: peptide library: pTyr-Var.
Regarding B1, the enrichment score was inactive: 0.725.

Take B2: the enrichment score is inactive: 0.883.

In the case of B3, the enrichment score is inactive: 1.06.

For B4, the enrichment score was inactive: 3.03.

In the case of B5, the enrichment score is inactive: 0.727.

For the molecule B6, the enrichment score is inactive: 0.787.

Turning to B7, the enrichment score is inactive: 0.674.

Turning to B8, the enrichment score was inactive: 0.825.

As to B9, the enrichment score is inactive: 0.639.

B10: the enrichment score was inactive: 0.715.

Consider B11, for which the enrichment score was inactive: 1.03.

With B12, the enrichment score is inactive: 0.371.

In the case of B13, the enrichment score was inactive: 0.389.

For B14, the enrichment score is active: 3.33.

As to B15, the enrichment score is inactive: 1.01.

Consider B16, for which the enrichment score is inactive: 0.633.

Consider B17, for which the enrichment score was active: 3.51.

As for B18, the enrichment score is inactive: 1.39.

As to B19, the enrichment score is inactive: 1.26.

The target in a further experiment is SHP2 N-SH2 domain T42A. The experiment is described as above. To be noted: peptide library: pTyr-Var.
Regarding B1, the enrichment score was inactive: 0.582.

B2: the enrichment score is inactive: 0.7.

Take B3: the enrichment score was inactive: 0.768.

Turning to B4, the enrichment score was inactive: 2.71.

Regarding B5, the enrichment score is inactive: 0.695.

Consider B6, for which the enrichment score was inactive: 0.797.

For B7, the enrichment score is inactive: 0.557.

As to B8, the enrichment score is inactive: 0.438.

As to B9, the enrichment score is inactive: 0.512.

With B10, the enrichment score is inactive: 0.52.

Consider B11, for which the enrichment score was inactive: 0.704.

On to B12, for which the enrichment score was inactive: 0.38.

With B13, the enrichment score was inactive: 0.453.

Take B14: the enrichment score was inactive: 2.87.

As to B15, the enrichment score was inactive: 1.1.

For the molecule B16, the enrichment score is inactive: 0.616.

Consider B17, for which the enrichment score was inactive: 2.15.

On to B18, for which the enrichment score is inactive: 1.21.

Take B19: the enrichment score is inactive: 0.99.

Another experiment concerns the target SHP2 N-SH2 domain T52S. The description is as above. To be noted: peptide library: pTyr-Var.
B1: the enrichment score was inactive: 0.65.

For B2, the enrichment score is inactive: 1.03.

On to B3, for which the enrichment score is inactive: 0.816.

On to B4, for which the enrichment score is inactive: 2.98.

As to B5, the enrichment score was inactive: 0.752.

On to B6, for which the enrichment score was inactive: 0.728.

B7: the enrichment score was inactive: 0.737.

Consider B8, for which the enrichment score is inactive: 0.544.

Turning to B9, the enrichment score is inactive: 0.675.

With B10, the enrichment score is inactive: 0.552.

As to B11, the enrichment score was inactive: 1.17.

With B12, the enrichment score is inactive: 0.506.

Consider B13, for which the enrichment score is inactive: 0.377.

As to B14, the enrichment score was inactive: 3.12.

Consider B15, for which the enrichment score is inactive: 1.07.

As to B16, the enrichment score was inactive: 0.627.

Turning to B17, the enrichment score was inactive: 2.3.

Turning to B18, the enrichment score is inactive: 1.15.

Consider B19, for which the enrichment score was inactive: 0.941.

A further experiment addresses SHP2 N-SH2 domain wild-type. Described as above. To be noted: peptide library: pTyr-Var.
As to B1, the enrichment score was inactive: 1.36.

For B2, the enrichment score is inactive: 0.989.

As to B3, the enrichment score was inactive: 1.1.

On to B4, for which the enrichment score is inactive: 2.13.

As to B5, the enrichment score is inactive: 0.839.

As for B6, the enrichment score is inactive: 0.943.

Turning to B7, the enrichment score was inactive: 0.713.

As to B8, the enrichment score was inactive: 0.923.

On to B9, for which the enrichment score was inactive: 0.538.

For B10, the enrichment score was inactive: 0.879.

As for B11, the enrichment score was inactive: 1.1.

As to B12, the enrichment score is inactive: 0.501.

Regarding B13, the enrichment score is inactive: 0.559.

In the case of B14, the enrichment score is active: 3.49.

B15: the enrichment score is inactive: 0.976.

On to B16, for which the enrichment score is inactive: 0.801.

In the case of B17, the enrichment score is inactive: 3.

As to B18, the enrichment score was inactive: 1.73.

For the molecule B19, the enrichment score is inactive: 1.05.
